Source: article PMC10868759
No constants are given. Whether binding was seen depends on the method and setting. Binding seen in cells or lysates may run through a third protein. Some entries that bind do so weakly or less than the wild type. Tags and fused reporters may be left off the sequences shown.

What was measured:
Assay in all cases: split reporter; BiFC: N-terminal YN and YC fusions co-expressed in epidermal cells of N. benthamiana leaves, observed 3 days after infiltration by spinning-disk microscopy; CFP-N7 as transformation control
[1] = target: T1, CESA6, N-terminal YN or YC fusion (BiFC) (Arabidopsis thaliana) (UniProt Q94JQ6)
T1 sequence: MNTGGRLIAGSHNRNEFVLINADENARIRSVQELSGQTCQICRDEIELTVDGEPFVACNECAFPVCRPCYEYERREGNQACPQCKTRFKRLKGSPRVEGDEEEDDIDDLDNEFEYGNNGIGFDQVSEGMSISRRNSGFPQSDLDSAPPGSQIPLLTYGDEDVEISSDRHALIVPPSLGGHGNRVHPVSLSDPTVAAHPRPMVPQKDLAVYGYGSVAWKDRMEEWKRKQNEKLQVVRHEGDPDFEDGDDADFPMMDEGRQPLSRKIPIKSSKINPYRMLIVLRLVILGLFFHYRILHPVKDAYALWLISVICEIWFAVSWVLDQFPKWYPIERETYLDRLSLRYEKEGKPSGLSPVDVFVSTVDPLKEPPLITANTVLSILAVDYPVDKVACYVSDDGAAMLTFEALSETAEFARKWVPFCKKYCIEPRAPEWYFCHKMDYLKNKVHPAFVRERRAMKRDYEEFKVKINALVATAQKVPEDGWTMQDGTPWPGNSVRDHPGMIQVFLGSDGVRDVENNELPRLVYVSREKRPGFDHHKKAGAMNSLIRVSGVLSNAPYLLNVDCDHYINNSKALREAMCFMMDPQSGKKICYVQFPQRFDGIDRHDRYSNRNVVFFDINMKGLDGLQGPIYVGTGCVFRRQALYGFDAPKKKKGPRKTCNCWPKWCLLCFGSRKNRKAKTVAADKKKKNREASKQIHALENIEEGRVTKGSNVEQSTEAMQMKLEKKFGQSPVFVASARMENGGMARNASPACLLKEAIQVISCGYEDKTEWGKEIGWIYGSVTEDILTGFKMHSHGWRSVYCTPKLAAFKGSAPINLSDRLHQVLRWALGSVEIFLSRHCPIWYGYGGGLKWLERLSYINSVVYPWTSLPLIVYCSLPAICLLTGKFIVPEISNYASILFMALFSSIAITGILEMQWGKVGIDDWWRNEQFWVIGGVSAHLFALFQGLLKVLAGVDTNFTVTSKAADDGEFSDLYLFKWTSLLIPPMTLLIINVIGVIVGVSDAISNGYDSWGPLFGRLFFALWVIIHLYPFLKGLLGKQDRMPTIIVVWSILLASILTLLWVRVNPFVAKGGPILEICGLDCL

[2] = target: MUR3, N-terminal YN or YC fusion (BiFC) (UniProt Q7XJ98)
[3] = target: T2, TIP1, N-terminal YN or YC fusion (BiFC) (Arabidopsis thaliana) (UniProt Q52T38)
T2 sequence: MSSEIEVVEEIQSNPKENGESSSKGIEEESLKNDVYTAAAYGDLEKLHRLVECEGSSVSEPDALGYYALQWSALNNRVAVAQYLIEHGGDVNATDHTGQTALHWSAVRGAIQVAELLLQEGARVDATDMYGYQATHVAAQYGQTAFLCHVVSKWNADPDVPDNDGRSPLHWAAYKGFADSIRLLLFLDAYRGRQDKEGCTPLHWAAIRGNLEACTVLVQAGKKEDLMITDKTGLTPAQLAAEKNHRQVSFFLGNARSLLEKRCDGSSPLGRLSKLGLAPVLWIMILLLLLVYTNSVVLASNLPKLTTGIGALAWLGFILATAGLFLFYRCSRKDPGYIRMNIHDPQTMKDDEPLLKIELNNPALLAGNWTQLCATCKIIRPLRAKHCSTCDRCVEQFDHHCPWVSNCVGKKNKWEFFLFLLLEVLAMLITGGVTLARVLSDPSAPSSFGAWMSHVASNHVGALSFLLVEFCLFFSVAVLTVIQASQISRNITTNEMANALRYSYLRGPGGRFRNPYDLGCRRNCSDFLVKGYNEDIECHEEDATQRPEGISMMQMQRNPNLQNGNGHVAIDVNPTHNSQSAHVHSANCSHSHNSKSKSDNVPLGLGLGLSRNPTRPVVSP

B1: MUR3, N-terminal YN or YC fusion (BiFC) (protein, UniProt Q7XJ98 1-619)
chain: MFPRVSMRRRSAEVSPTEPMEKGNGKNQTNRICLLVALSLFFWALLLYFHFVVLGTSNIDKQLQLQPSYAQSQPSSVSLRVDKFPIEPHAAPSKPPPKEPLVTIDKPILPPAPVANSSSTFKPPRIVESGKKQEFSFIRALKTVDNKSDPCGGKYIYVHNLPSKFNEDMLRDCKKLSLWTNMCKFTTNAGLGPPLENVEGVFSDEGWYATNQFAVDVIFSNRMKQYKCLTNDSSLAAAIFVPFYAGFDIARYLWGYNISRRDAASLELVDWLMKRPEWDIMRGKDHFLVAGRITWDFRRLSEEETDWGNKLLFLPAAKNMSMLVVESSPWNANDFGIPYPTYFHPAKDSEVFEWQDRMRNLERKWLFSFAGAPRPDNPKSIRGQIIDQCRNSNVGKLLECDFGESKCHAPSSIMQMFQSSLFCLQPQGDSYTRRSAFDSMLAGCIPVFFHPGSAYTQYTWHLPKNYTTYSVFIPEDDVRKRNISIEERLLQIPAKQVKIMRENVINLIPRLIYADPRSELETQKDAFDVSVQAVIDKVTRLRKNMIEGRTEYDYFVEENSWKYALLEEGQREAGGHVWDPFFSKPKPGEDGSSDGNGGTTISADAAKNSWKSEQRDKTQ
binding [1]: no binding | binding [2]: binds | binding [3]: no binding
